# In the RNAGym collection of RNA variant scans (doi:10.1073/pnas.2313332121):
# This sample is rich in variants without activity.
# B1: TPR 5TU (parent)
# chain: GGAUCUUCUCGAUCUAACAAAAAAGACAAAUCUGCCACAAAGCUUGAGAGCAUCUUCGGAUGCAGAGGCGGCAGCCUUCGGUGGCGCGAUAGCGCCAACGUUCUCAACUAUGACACGCAAAACGCGUGCUCCGUUGAAUGGAGUUUAUCAUG
# Variants of: B1
# Assay: polymerase ribozyme fitness, log enrichment relative to wild type (log ratio); higher = more active; in vitro selection for triplet polymerase activity
# Summary of the method: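 Fitness compares each genotype's enrichment to that of the wild type on a logarithmic scale, averaging replicates with inverse-variance weights. The logarithm is base 2. Enrichment came from Illumina sequencing of input and output libraries after one triplicate round of in vitro selection, which included frozen incubation at −7 °C, of PCR-built, transcribed mutant libraries of each subunit of a heterodimeric triplet polymerase ribozyme. Only genotypes with ≥10 input reads and ≥1 read per output were kept.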
row,Variant,polymerase ribozyme fitness (log ratio)
1,G48A G59A G88C A106G U148C,≤ -4.2
2,G46U U90G C93U,≤ -4.2
3,U45A C87U C99U A119U,≤ -4.2
4,G46U C85U C99U G100A,≤ -4.2
5,G48C A91U A113U A115C G141A,≤ -4.2
6,A47C G84C C93A,≤ -4.2
7,A47C C63A C87G,≤ -4.2
8,G48A G50A U56G U148C,≤ -4.2
9,A47C C96U A107U,-3.57
10,U45C U53A U90A C103A C129U G143C,≤ -4.2
11,A47G C75G A107U U135A U148C,≤ -4.2
12,U45A G92U,-2.75
13,U45A G92C,-3.75
14,U45A G84U U144C,≤ -4.2
15,G46U G48A G50A U53A G92A A121G G143A A150G,≤ -4.2
16,G46A U90G G94U A107G C131G U146A,≤ -4.2
17,A47U G86C C95U A137G G141C,≤ -4.2
18,A47C G50C U53A A89G A106U A120C G136A,≤ -4.2
19,A47C G48A U61A U82C A98U C123A U139A U144G U148A,≤ -4.2
20,U45G A49G U53A C108A C118G C125G,≤ -4.2
21,A47C C87A G88U,≤ -4.2
22,G48C A49G A113G,≤ -4.2
23,U45G C75G G83U,≤ -4.2
24,U44G G94A C105G U148A,≤ -4.2

row,Variant,polymerase ribozyme fitness (log ratio)
1,G48C C51U C85U C129A U145C,≤ -4.2
2,U45A A47U G65C A66U G86C C87G C131G,≤ -4.2
3,A47C G81C G88C C103G,≤ -4.2
4,G48A U55A C76U G83C,≤ -4.2
5,A47C C129G,-4.19
6,G46A A49C,≤ -4.2
7,A47C G48C G74C U78G G143U,≤ -4.2
8,U45A A47G C87A,≤ -4.2
9,G46A G50A G58U G68A A91U,≤ -4.2
10,G48A A52C U53C G92U G94A C125A U135A G143C,≤ -4.2
11,A47C C85G C103G,≤ -4.2
12,A47U U77C C85A C93G A107U,≤ -4.2
13,A47U A49C G68A U78C A91G C95A U148C,≤ -4.2
14,U45A G67A C85G C95G,≤ -4.2
15,A47U C76A G84A G94U C131U A142C G143C,≤ -4.2
16,G48C A49U G50A G58A A107C U134A,≤ -4.2
17,A47C U53G C79A C87A C99U G136U,≤ -4.2
18,U45A C57G U78A G80U C103A C118G,≤ -4.2
19,A47C G126A,0.0505
20,A47U C76A A91U C99A C116A,≤ -4.2
21,U45G G84U,-1.97
22,G46A C57U U61A,≤ -4.2
23,G46A G62A C76A C96U U102A C114U A115C C118U,≤ -4.2
24,G48A U55G A142C,-2.84

row,Variant,polymerase ribozyme fitness (log ratio)
1,G46A A60U C79G G83U U109G C118U A147G,≤ -4.2
2,G48C A73U C76A C87U U90G C96A U146G,≤ -4.2
3,A47C A64C C108U,≤ -4.2
4,U45A G48A G65A A73U C93A A137G,≤ -4.2
5,G46C C87G U90C,≤ -4.2
6,G48A C76G C87A U90A U146A,≤ -4.2
7,G48A C85G A98U C99U,-3.36
8,G46C C87U U101G U109G,≤ -4.2
9,G48A C87U,-0.447
10,A47G G68U G88U U90A A106G C114U U134A,≤ -4.2
11,G46U C93U,-0.878
12,G46A G84C C132U,≤ -4.2
13,G48C A113C U148C,≤ -4.2
14,U44G C87A C103U C108A A110C C132A,≤ -4.2
15,A47C A113C A137C,≤ -4.2
16,U45G C54A G67A C95U,≤ -4.2
17,G48A C87G A91U,≤ -4.2
18,A47G A73G G83C C87U G152C,≤ -4.2
19,A47U G88C U102A G133A,≤ -4.2
20,A47C G58U C99A U148G,≤ -4.2
21,G48A A49G C54U U90G G92U C99U A121C U151A,≤ -4.2
22,G46C C87U C93A C116A C125U,≤ -4.2
23,G46C U55G G58U,-0.983
24,U45G C54U A119U U146G,-2.19

row,Variant,polymerase ribozyme fitness (log ratio)
1,A47G C63G G74C A120G,≤ -4.2
2,U45C G80C C85U C87G G92A U144G,≤ -4.2
3,A47C U61G G94C C116A,≤ -4.2
4,A47G G74A A115G,≤ -4.2
5,G48A C51U,-1.05
6,G46A G84C C108A,≤ -4.2
7,G46C A49U C54A G92U U148A,≤ -4.2
8,G48C G92U,-1.69
9,G46C C105G,1.29
10,U45A C51U G74A C95A U135G,≤ -4.2
11,G46A C51U C76G U148G,≤ -4.2
12,G48C G88U A89G U134A U135A,≤ -4.2
13,G48A G62A C96A C132G U134G A147C,≤ -4.2
14,A47G C87U,0.257
15,G46C C85U A110U,-4.17
16,G48C C96A U111A A138C,≤ -4.2
17,A47U C96U A107G A137G,≤ -4.2
18,U45G G50C A122G C129A,≤ -4.2
19,A47U A64G G67A,≤ -4.2
20,U45A G65C C85U U139A,≤ -4.2
21,G48C G84A G126A G143C A150C,≤ -4.2
22,U44G U56C C57A G59A C93U A98U,≤ -4.2
23,U45A C85A C87G C114A A137C,≤ -4.2
24,A47G G48C G84U A121U A138C,≤ -4.2

row,Variant,polymerase ribozyme fitness (log ratio)
1,A47G G83A U90C A115C A121U,≤ -4.2
2,U44G G59C U78C G117U G143C,≤ -4.2
3,G48A U102C A107G A110U,≤ -4.2
4,U45A G83U C95U,≤ -4.2
5,A47G G68U U78C C96U A122G U134A,≤ -4.2
6,U45A G65A G86U,≤ -4.2
7,A47U A64U G81U G92U C99G,≤ -4.2
8,U44G C87G G88C C114U A137C U144C,≤ -4.2
9,U45G G46C G67U,≤ -4.2
10,G46C G59C G88A,≤ -4.2
11,A47G C85G U130G,≤ -4.2
12,U45G G46A C57A A60G A120G G133C G143U,≤ -4.2
13,U45C C79A A110C C118U A120G C131G,≤ -4.2
14,U45A A52C C69A C114U,≤ -4.2
15,G46A U61G C76A A89C C93U G100A U144C,≤ -4.2
16,A47G G59C G92U C99A C118G,-3.37
17,U45A U78G A110U,≤ -4.2
18,G48A G83U A98G G140C,≤ -4.2
19,G46C G50C U55G C85U C95G A97U G133A,≤ -4.2
20,A47C C95U C96U C118U C131U,-1.83
21,A47C A49C C57G U61A A66C A73G U111G G140A,≤ -4.2
22,A47U C69G A89U C93U C116U G124C,≤ -4.2
23,A47U G68C C85A C95A A106G U134C A150G,≤ -4.2
24,A47G C51A A64G G86A A89C A110G,≤ -4.2

row,Variant,polymerase ribozyme fitness (log ratio)
1,G48C C63U C79G C85U A98U C105U U111G,≤ -4.2
2,A47C G50A C51A U56A C57A C93G A142C,≤ -4.2
3,A47U U61A C75A C76U G88U,≤ -4.2
4,U45A U61A C76A A91C U102A A122U,≤ -4.2
5,G48C C99U,-1.72
6,A47U C57G C87U G88A,≤ -4.2
7,G46A C93G C105U U109G G117C C125G G128C,≤ -4.2
8,G46A U61G C103A C118G,≤ -4.2
9,A47C G62U C99G G143U,≤ -4.2
10,G46U G84U U90G A98C G126A G136U U144G,≤ -4.2
11,A47C U53A A60U C76G C93A C123U,≤ -4.2
12,G46U G50C,≤ -4.2
13,A47G G81C G92C C95A A142G,-2.95
14,U45G A49C G50C C87U C96A,≤ -4.2
15,A47C C105G A137U,≤ -4.2
16,A47U G88U A107U C129U,≤ -4.2
17,U45C A91C C96A C114U G133C,≤ -4.2
18,G48C C76U,-3.15
19,G46C U61G G81C C114U C116G A147G,≤ -4.2
20,G46A C75G G86U C87G C96A C114A A137U,≤ -4.2
21,A47C G92U C105U C131G,≤ -4.2
22,G46U A52G C85A U127C G143A,≤ -4.2
23,G48C C96U A110G,≤ -4.2
24,A47C C57G C93U U151G,≤ -4.2

row,Variant,polymerase ribozyme fitness (log ratio)
1,G46A G59C C114U A120G A137C,≤ -4.2
2,G48C A110C G141U U148G,≤ -4.2
3,G46U G48U G74U U82G,≤ -4.2
4,U45A A47C,-3.93
5,A47C U82A,-0.366
6,U44G G58U A98G U144A,≤ -4.2
7,G48A G50U G88C C95G C114U,≤ -4.2
8,G46C G48A C87G G88U C105U U135G G143A C149U,≤ -4.2
9,U45G C87A C118G C149U,≤ -4.2
10,U45G U55G A91C U101A A107G,≤ -4.2
11,A47C C54G C87A,≤ -4.2
12,U45A A49G C87U A113U G126A,≤ -4.2
13,A47G A66C U77G U134C,≤ -4.2
14,A47C C85A C118U,-0.946
15,U45G G83A,-0.848
16,A47G A49G G68U,≤ -4.2
17,G46A U55A,-0.993
18,U45A G71C U102G C116G,≤ -4.2
19,U45A C54A C87A C132U,≤ -4.2
20,A47C C95U,0.141
21,A47C C57A G94A U144G,1.12
22,G48C G59A A64U C85U C87A A122G A137C,≤ -4.2
23,G46C U144C,-1.66
